Assay results: PubChem BioAssay AID504845 (National Center for Advancing Translational Sciences (NCATS), 2011)
Screen size: about 390,000 compounds; about 150 (0.038%) were called active. The inconclusive results got no clear call from the source; some entries with a clear call stand among them for comparison. The call rests on the fitted dose curve; in most records, active means well fitted inhibition curve with a large enough effect; inconclusive means small, poorly fitted or top-dose-only effect; inactive means no such curve, though single readings can be large or run the other way. Where the call is inconclusive, the potency comes from a doubtful curve fit.

target: Regulator of G-protein signaling 4 (Homo sapiens) (UniProt P49798); test: Inhibitors of Regulator of G Protein Signaling (RGS) 4: qHTS; details: Transcreener GDP fluorescence polarization, RGS4-accelerated GTP hydrolysis; series mostly up to 114 µM; further: nearly all actives have a fitted effect of over 75% in size
UniProt P49798, sequence (P49798 whole entry, looked up): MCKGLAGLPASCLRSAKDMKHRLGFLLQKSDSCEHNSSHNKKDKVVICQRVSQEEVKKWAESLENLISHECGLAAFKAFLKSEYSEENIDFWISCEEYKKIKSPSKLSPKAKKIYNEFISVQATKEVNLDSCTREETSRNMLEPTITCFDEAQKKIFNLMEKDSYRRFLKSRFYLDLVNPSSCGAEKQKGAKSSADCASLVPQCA
Summary of the method: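 MLSMR compounds (23 nl, pin-transferred) preincubated 10 min at room temperature with a 500nM (2x) first reagent, then RGS4 at 900nM (2x) plus Transcreener GDP mix added; fluorescence polarization (620/688 nm) read before and after 90 min at 30 °C.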
On the % scale 0 is the no-effect control and ±100 the full control effect; potency means the concentration at half of the fitted maximal effect; tags describe the fitted curve by direction and shape.

Compound	Potency	activity change, negative = inhibition
CN1C(=O)c2cccc(NCCCCCCN3C(=O)c4ccccc4C3=O)c2C1=O	inconclusive: 89.1 µM [inhibitor, single point]	–
O=C(NC(=S)Nc1ccc2ncccc2c1)c1ccccc1	inconclusive: 50.1 µM [inhibitor, partial curve, poor fit]	–
S=C(Nc1ccccn1)c1ccccn1	–	inactive: -35.6% [at 11.4 µM]
COc1ccc(N2CC(O)(c3ccc(F)cc3)[N+]3=C2CCCC3)cc1 (stereo unspecified)	inactive	–
Cc1cccc(OCC(=O)N/N=C2/SCC(=O)N2Cc2ccco2)c1	inconclusive: 31.6 µM [inhibitor, full curve, poor fit]	–
COc1ccc(CNC(=O)CSc2nnc3c(n2)[nH]c2ccc(F)cc23)cc1	inactive	–
CCN(CC)c1ccc(/C=c2\sc3nc4ccccc4n3c2=O)c(O)c1	inconclusive: 44.7 µM [inhibitor, partial curve, poor fit]	–
O=C(N/N=C/c1ccc(N2CCOCC2)o1)c1ccccc1[N+](=O)[O-]	inconclusive: 35.5 µM [inhibitor, partial curve, poor fit]	–
Cc1ccc2nc(SCc3cn4cccnc4n3)[nH]c2c1	inconclusive: 79.4 µM [inhibitor, partial curve, poor fit]	–
Cc1cc(C)c(CSc2ncc(-c3ccc([N+](=O)[O-])cc3)[nH]2)c(C)c1	–	inactive: 19.6% [at 11.4 µM]
CCOC(=O)c1snc(C(=O)NC2CCCCC2)c1N	inactive	–
NC1=NC(=O)/C(=C\c2ccco2)S1	inactive	–
CC1=C(C#N)C(=O)NC(=O)/C1=C\c1ccc(-c2cc(C)c(C)cc2[N+](=O)[O-])o1	inconclusive: 35.5 µM [inhibitor, full curve, poor fit]	–
Cc1cc(N2C3CCC2CC(O)(c2ccc(F)cc2)C3)nc(-c2ccccc2)n1 (stereo unspecified)	inactive	–
CCOC(=O)C1CCCN(C(=O)c2ccc3c(c2)N(C)C(=O)/C(=C/c2ccccc2Cl)S3)C1 (stereo unspecified)	inactive	–
Cc1ccc(S(=O)(=O)N2CCOC2C(Cl)(Cl)Cl)cc1 (stereo unspecified)	–	inactive: 11.9% [at 11.4 µM]
NS(=O)(=O)c1ccc(NC(=S)NCc2cccs2)cc1	inconclusive: 35.5 µM [inhibitor, full curve, poor fit]	–
O=C1C(O)=CC(=C(c2ccccc2)c2ccccc2)c2ccccc21	inconclusive: 35.5 µM [inhibitor, full curve, poor fit]	–
CC(Oc1cccc(Cl)c1)C(=O)Nc1nc(-c2ccccn2)cs1 (stereo unspecified)	inconclusive: 79.4 µM [inhibitor, partial curve, poor fit]	–
O=C(N/N=C/c1cc(Br)cc(Cl)c1O)c1ccc2c(c1)OCO2	inconclusive: 31.6 µM [inhibitor, full curve, poor fit]	–
c1csc(-c2nc(N3CCN(Cc4ccc5c(c4)OCCO5)CC3)c3ccccc3n2)c1	inactive	–
Cc1cccc(NC(=O)c2ccc(F)c(S(=O)(=O)NCc3ccco3)c2)c1	inactive	–

Compound	Potency	activity change, negative = inhibition
COc1ccc(CNc2nc3ccccc3n2C)c(O)c1	inactive	–
O=C(Nc1cc(-c2ccccc2)nn1C1CCCCC1)c1ccc(Cl)cc1	inactive	–
Cc1onc(-c2ccccc2Cl)c1C(=O)N/N=C(\N)COc1ccc(Cl)cc1	inactive	–
COc1ccc(NC(=O)C2CCCO2)cc1 (stereo unspecified)	inactive	–
CC(C)C[C@@H](CNCC(=O)[C@H](C)NC(=O)c1[nH]cnc1C(=O)N[C@@H](C)CN)NC(=O)c1nc[nH]c1C(=O)N[C@@H](CC(=O)O)C(=O)O	inconclusive: 79.4 µM [inhibitor, single point]	–
CCOC(=O)C(C(=O)OCC)C1OC(=O)c2cc3c(cc21)C(=O)OC3C(C(=O)OCC)C(=O)OCC (stereo unspecified)	inconclusive: 89.1 µM [inhibitor, single point]	–
Clc1cccc(CNc2nc(-c3cccnc3)nc3ccccc23)c1	inconclusive: 44.7 µM [inhibitor, partial curve, poor fit]	–
Nc1ccc2nc(-c3cccc(-c4nc5ccc(N)cc5[nH]4)c3)[nH]c2c1	inconclusive: 89.1 µM [inhibitor, single point]	–
CCOC(=O)c1c(-c2ccco2)csc1NC(=O)COC(=O)c1cnccn1	inconclusive: 50.1 µM [inhibitor, partial curve, poor fit]	–
CCN(CC)S(=O)(=O)c1ccc(OC)c(NC(=O)c2sc3ccccc3c2Cl)c1	inactive	–
O=[N+]([O-])c1ccc2nc(NCCCO)nc(-c3ccccc3)c2c1	inconclusive: 70.8 µM [inhibitor, partial curve, poor fit]	–
Cc1cc(C)c(OCC(=O)N(Cc2ccc(N(C)C)cc2)Cc2ccco2)c(C)c1	inactive	–
CC(C)CSc1n[nH]c(=S)s1	inconclusive: 17.8 µM [inhibitor, full curve, poor fit]	–
O=C(O)/C=C/C(=O)Nc1ccccc1C(=O)Nc1ccccc1	inactive	–
CC(C)(C)c1ccc(CN2N=Nc3ccccc3S2(=O)=O)cc1	inconclusive: 89.1 µM [inhibitor, partial curve, poor fit]	–
Cc1ccc(S(=O)(=O)ON2C(=O)c3ccccc3C2=O)c(C)c1	inconclusive: 35.5 µM [inhibitor, partial curve, poor fit]	–
CCS(=O)(=O)c1cc([N+](=O)[O-])c(Sc2ccccc2N)s1	inconclusive: 50.1 µM [inhibitor, partial curve, poor fit]	–
COc1ccc(/C=C2\SC(=S)N(CCC(=O)Nc3ccc(C(=O)O)cc3)C2=O)cc1	inconclusive: 89.1 µM [inhibitor, single point]	–
CC[n+]1c(/C=C/N(C)c2ccccc2)n(-c2ccccc2)c2ccc(-c3nc4ccccc4s3)cc21	inconclusive: 89.1 µM [inhibitor, single point]	–
COc1ccc(C(=O)c2cn(CC(=O)Nc3cc(OC)cc(OC)c3)c3ccc(OC)cc3c2=O)cc1	inconclusive: 50.1 µM [inhibitor, partial curve, poor fit]	–
Cc1ccccc1CNC(=O)Cn1c(=O)c2cccn2c2cccnc21	inconclusive: 89.1 µM [inhibitor, single point]	–
Cc1cccc2c1-c1sc(C(=O)NCCCN3CCc4ccccc4C3)cc1CO2	inconclusive: 100 µM [inhibitor, single point]	–

Compound	Potency	activity change, negative = inhibition
S=c1nc(-c2csc3c2CCCC3)[nH][nH]1	inconclusive: 28.2 µM [inhibitor, full curve, poor fit]	–
C=CCSC1=C(C#N)C(c2cc(Br)c(O)c(OC)c2)CC(=O)N1 (stereo unspecified)	inconclusive: 39.8 µM [inhibitor, partial curve, poor fit]	–
CCOc1ccccc1N1CSC2=C(C#N)C(c3c(OC)ccc4ccccc34)CC(=O)N2C1 (stereo unspecified)	inconclusive: 31.6 µM [inhibitor, full curve, poor fit]	–
O=C(O)c1cccc(NC(=O)C23CC4CC(C2)CC(n2cnc(Cl)n2)(C4)C3)c1	inactive	–
Cc1cc(-c2csc(N)n2)c(C)n1-c1ccccc1	inconclusive: 28.2 µM [inhibitor, full curve, poor fit]	–
CC(C)(C)OC(=O)NCC12C=CC(O1)C1C(=O)N(Cc3ccccc3)C(=O)C12 (stereo unspecified)	inconclusive: 89.1 µM [inhibitor, single point]	–
Cc1ccc(/C=C/C(=O)NCCc2cccc(Cl)c2)o1	inconclusive: 35.5 µM [inhibitor, partial curve, poor fit]	–
COc1ccc(OC)c(NC(=O)c2nc(S(=O)(=O)Cc3ccc(F)cc3)ncc2Cl)c1	inconclusive: 10 µM [inhibitor, full curve, poor fit]	–
CCOC(=O)C1=C(C)NC(C)=C(C(=O)OCC)C1c1c(F)c(F)c(F)c(F)c1F	inconclusive: 15 µM [inhibitor, single point]	–
COc1ccc(C2N=C(Nc3nc4ccccc4o3)NC3=C2C(=O)CC(C)(C)C3)cc1 (stereo unspecified)	inactive	–
CCN(CCn1cccn1)C(=O)c1cc(COc2ccccc2SC)on1	inactive	–
O=C(Nc1ccc(S(=O)(=O)N2CCOCC2)cc1)c1ccc2c(c1)S(=O)(=O)c1ccccc1C2=O	inactive	–
Cc1c(C(=O)N/N=C/c2ccccc2)[nH]c2ccc(Cl)cc12	inactive	–
O=[N+]([O-])c1c(NCc2ccco2)ncnc1NCc1ccco1	inconclusive: 100 µM [inhibitor, single point]	–
COC(=O)C1=C[C@@H](C(=O)OC)[C@@H]2C3=C(C(=O)C2(C)C)[C@H](C)n2c(=O)n(-c4ccccc4)c(=O)n2[C@@H]3C1	inactive	–
CCCc1nc2ccc(NC(=O)c3cccs3)cc2c(=O)n1Cc1ccccc1Cl	inconclusive: 31.6 µM [inhibitor, full curve, poor fit]	–
Cc1cc(=O)[nH]c(N/N=C/c2ccc(-c3ccc(F)cc3)o2)n1	inconclusive: 70.8 µM [inhibitor, partial curve, poor fit]	–
Cc1ccc2nc(-c3ccc(NS(C)(=O)=O)cc3)cc(-c3ccccc3)c2c1	inactive	–
Cc1ccc(Cn2c(=N)c(C(=O)NCC3CCCO3)cc3c(=O)n4ccccc4nc32)cc1 (stereo unspecified)	inactive	–
O=[N+]([O-])C(=C1Nc2ccccc2N1)/C(Cl)=C(/Cl)Br	inconclusive: 39.8 µM [inhibitor, partial curve, poor fit]	–
CCOC(=O)CSc1nnc(Cc2cc(=O)[nH]c(=O)[nH]2)n1-c1ccc(Cl)cc1	inconclusive: 79.4 µM [inhibitor, single point]	–
O=C(CCNC(=O)Cn1cnc2ccccc2c1=O)NCC1COc2ccccc2O1 (stereo unspecified)	–	inactive: -48.7% [at 11.4 µM]
